Experimental data from PubChem BioAssay AID1030 (National Center for Advancing Translational Sciences (NCATS), 2008).
In all, about 220,000 compounds went through this assay and about 16,000 (7.3%) were called active. Inconclusive means that the source gave no clear call. Such entries were picked first, then a sample of the others. The call rests on the fitted dose curve; in most records, active means well fitted inhibition curve with a large enough effect (not every such curve was filed as active); inconclusive means small, poorly fitted or top-dose-only effect, or another doubt; inactive means no such curve, though single readings can be large or run the other way. Potencies of inconclusive entries are left out as doubtful fits.
Potency means the concentration at half of the fitted maximal effect; tags describe the fitted curve by direction and shape.
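Wherever activity, negative = inhibition is given: plate controls were no enzyme wells and a reference inhibitor.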

These molecules were tested against Aldehyde dehydrogenase 1A1 (Homo sapiens) (UniProt P00352) (assay: qHTS Assay for Inhibitors of Aldehyde Dehydrogenase 1 (ALDH1A1)). Details: Purified ALDH1A1, NADH fluorescence, propionaldehyde substrate; series mostly up to 75.3 µM.
Sequence of UniProt P00352 (P00352 whole entry, looked up): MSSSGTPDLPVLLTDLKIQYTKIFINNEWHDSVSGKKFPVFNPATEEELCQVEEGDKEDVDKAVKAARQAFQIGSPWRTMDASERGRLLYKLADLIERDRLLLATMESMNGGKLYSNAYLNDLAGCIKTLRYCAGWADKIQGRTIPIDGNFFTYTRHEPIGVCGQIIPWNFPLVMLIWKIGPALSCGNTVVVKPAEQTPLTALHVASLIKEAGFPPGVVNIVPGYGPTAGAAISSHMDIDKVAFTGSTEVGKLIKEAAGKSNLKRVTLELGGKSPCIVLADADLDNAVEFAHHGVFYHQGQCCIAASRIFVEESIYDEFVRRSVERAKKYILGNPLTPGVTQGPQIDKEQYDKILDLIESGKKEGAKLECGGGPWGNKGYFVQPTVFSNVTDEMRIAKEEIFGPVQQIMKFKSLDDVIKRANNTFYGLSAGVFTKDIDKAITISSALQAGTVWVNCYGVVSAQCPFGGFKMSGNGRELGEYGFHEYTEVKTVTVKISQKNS
With CS(=O)(=O)N1CCN(c2ccc([N+](=O)[O-])c(NCc3ccccc3)c2)CC1 the Potency was “inactive”.
For Cc1cnc(C(=O)OCC(=O)N2CCc3ccccc3C2)cn1, the Potency was inconclusive [inhibitor, partial curve].
With CC(C)C(c1nnnn1C(C)(C)C)N1CCC(Cc2ccccc2)CC1 (stereo unspecified) the Potency was active: 22.4 µM.
OCC1(Cc2cccc(C(F)(F)F)c2)CCN(Cc2cc3ccccc3o2)CC1 was tested, and the Potency was “inactive”.
CSc1ccc(OC2CCCCC2NS(=O)(=O)c2ccccc2)cc1 (stereo unspecified) was tested, and the Potency was active: 1.26 µM.
With COc1nc(Cl)nc(Cl)c1Cl (tested in a mixture with another compound) the activity, negative = inhibition was inactive: 5.84% [at 13.5 µM].
O=c1c(O)c(-c2ccc(O)c(O)c2)oc2cc(O)ccc12 was tested, and the Potency was inconclusive [inhibitor, partial curve].
CCN(CC)CCC[C@H](C)Nc1c2ccc(Cl)cc2nc2ccc(OC)cc12 was tested, and the Potency was inconclusive [inhibitor, single point].
With CCN(CC)c1ccc(-n2c(C)c(C(C)=O)c(C(C)=O)c2C)cc1 the Potency was inconclusive [inhibitor, single point].
In the case of COc1ccc(NCCC#N)cc1, the Potency is reported as inconclusive [inhibitor, single point].
For Cn1c(C(=O)N2CCCc3ccccc32)cc2sccc21, the Potency was active: 7.94 µM.
In the case of O=C(/C=C/c1ccccc1)NC1CCSC1=O (stereo unspecified), the Potency is reported as “inactive”.
In the case of CCNc1nnc(CSc2nc3ccccc3s2)s1, the Potency is reported as inconclusive [inhibitor, single point].
For Cc1cccn2c(=O)c3cc(C#N)c(=NC(=O)c4ccco4)n(Cc4ccco4)c3nc12, the Potency was inconclusive [inhibitor, single point].
With CN(c1ccccc1)S(=O)(=O)c1cccc(NS(=O)(=O)c2ccc(/C=C/C(=O)O)cc2)c1 the Potency was “inactive”.
Cc1nc2cnc(N3CCN(C)CC3)nc2n(C)c1=O was tested, and the Potency was inconclusive [inhibitor, partial curve].
O=C(O)CSCC(=O)NCc1ccc(Cl)cc1Cl was tested, and the Potency was inconclusive [inhibitor, single point].
With Cn1c(=O)oc2cc(S(=O)(=O)Nc3ccc4c(c3)OCO4)ccc21 the Potency was inconclusive [inhibitor, partial curve].
For COCCN(CCOC)c1nc(N)c2c(N)nc3c(c2c1C#N)CC(=O)N3Cc1ccc(Cl)cc1, the Potency was inconclusive [inhibitor, partial curve].
With CC(C)Cn1c(N)c(C(=O)CSc2ccc3c(c2)OCCO3)c(=O)n(C)c1=O the Potency was “inactive”.
In the case of N#C/C(=N/O)c1nc(-c2ccc(F)cc2)cs1, the Potency is reported as inconclusive [inhibitor, single point].
For Cc1c(NC(=O)CN2CCN(c3ccc([N+](=O)[O-])cc3)CC2)c(=O)n(-c2ccccc2)n1C, the Potency was inconclusive [inhibitor, partial curve].
For CC(C)(C)N(Cc1cc2ccccc2[nH]c1=O)C(=O)C1CCCCC1, the Potency was inconclusive [inhibitor, single point].
COC(=O)C1=C(C)N(Cc2ccccc2)C(=O)N[C@@H]1c1ccccc1 was tested, and the Potency was “inactive”.
CCCc1c(C)nc2ccccc2c1SCCC#N was tested, and the Potency was “inactive”.
For CC(C)CC1CC(C)(c2csc(NNC(=O)c3ccccc3)n2)OC1=O (stereo unspecified), the Potency was “inactive”.
With O=C(NCCC1=CCCCC1)C(=O)NCC1OCCCN1S(=O)(=O)c1ccccc1 (stereo unspecified) the Potency was inconclusive [inhibitor, single point].
For Cc1ccc(C)c(NC(=O)C(Sc2nncn2C)c2ccccc2)c1 (stereo unspecified), the Potency was inconclusive [inhibitor, single point].
In the case of CN1CCc2c(n(CC(O)CN3CCN(CCO)CC3)c3ccccc23)C1=O (stereo unspecified), the Potency is reported as inconclusive [inhibitor, single point].
For O=C(C1CCN(C2CC(=O)N(c3ccc(F)cc3)C2=O)CC1)N1CCOCC1 (stereo unspecified), the Potency was active: 7.08 µM.
Cc1ccc(OCC(=O)Nc2ccc(-c3nc4ncccc4o3)cc2)c(C)c1 was tested, and the Potency was inconclusive [inhibitor, partial curve].
For CCC(Sc1nc(-c2cccc(OC)c2)c(C#N)c(=O)[nH]1)C(=O)Nc1nnc(C(C)C)s1 (stereo unspecified), the Potency was inconclusive [inhibitor, single point].
In the case of c1ccc(OCc2nn3c(-c4ccccn4)nnc3s2)cc1, the Potency is reported as “inactive”.
COc1ccc(C2C(C(=O)O)c3ccccc3C(=O)N2C)cc1Br (stereo unspecified) was tested, and the Potency was inconclusive [inhibitor, single point].
For c1csc(-c2nnc(N3CCOCC3)c3ccccc23)c1, the Potency was inconclusive [inhibitor, single point].
O=C(Nc1ccc(-c2nnc(-c3ccccc3)o2)cc1)C1CCCO1 (stereo unspecified) was tested, and the Potency was inconclusive [inhibitor, partial curve].
In the case of O=C(CCSCCC(=O)N1CCCC1)N1CCCC1, the Potency is reported as inconclusive [inhibitor, single point].
O=C(CSc1ccsc1[N+](=O)[O-])Nc1cc(F)ccc1F was tested, and the Potency was inconclusive [inhibitor, single point].
With COCCNS(=O)(=O)c1ccc2c3c(cccc13)C(=O)N2C the Potency was inconclusive [inhibitor, partial curve].
Cc1nc(Nc2ccc(Cl)c(Cl)c2)sc1C(=O)Nc1ccccc1 was tested, and the Potency was “inactive”.
CC(C)Oc1ccc(-c2cc(C(=O)NCCN3CCOCC3)c3ccccc3n2)cc1 was tested, and the Potency was inconclusive [inhibitor, single point].
CCOc1ccc(C(=O)NCC2OCCc3ccccc32)cc1 (stereo unspecified) was tested, and the Potency was “inactive”.
For O=C(C1=COCCO1)N1CCN(S(=O)(=O)c2cccc(Cl)c2Cl)CC1, the Potency was “inactive”.
In the case of COCCNC(=O)c1ccc2c(=O)n(CCOC)c(=O)[nH]c2c1, the Potency is reported as inconclusive [inhibitor, single point].
For Cc1ccc(C(=O)N(CN2CCCC2=O)c2ccc(F)cc2)cc1, the Potency was inconclusive [inhibitor, single point].
For Cc1c(/C=N/O)c2ccccn2c1C=O, the Potency was “inactive”.
In the case of CCCC(=O)Nc1cc(S(=O)(=O)N(CC)CC)ccc1Cl, the Potency is reported as active: 12.6 µM.
In the case of O=C(CNc1ccccc1)N/N=C/c1cc([N+](=O)[O-])ccc1N1CCCC1, the Potency is reported as inconclusive [inhibitor, single point].
With COc1ccccc1C(=O)NCCn1cc(SCC(=O)Nc2nnc(C)s2)c2ccccc21 the Potency was active: 0.316 µM.
With O=C(Cc1nc2ccccc2[nH]1)c1cccc([N+](=O)[O-])c1 the Potency was inconclusive [inhibitor, single point].
For Cc1ccc(C(=O)N[C@@H](C)CN2C3=NC[C@H](C(C)C)N3C[C@H]2Cc2ccc(O)cc2)cc1Br, the Potency was inconclusive [inhibitor, single point].
For CCCCSc1cc(=O)n(-c2ccccc2)nc1C(=O)OCC, the Potency was inconclusive [inhibitor, partial curve].
For CCN(CC)C(=O)C(=O)c1cn(CC(=O)N2CCc3ccccc3C2)c2ccccc12, the Potency was active: 0.708 µM.
C=CCOc1ccc(C2C(C(=O)c3ccco3)=C(O)C(=O)N2Cc2cccnc2)cc1 (stereo unspecified) was tested, and the Potency was inconclusive [inhibitor, partial curve].
With COC(=O)c1c(NC(NC(=O)c2ccccc2)(C(F)(F)F)C(F)(F)F)sc2c1CCN(C)C2 the Potency was inconclusive [inhibitor, single point].
For CCC(C)n1c(-c2cccc(S(=O)(=O)N(CC)CC)c2)n[nH]c1=S (stereo unspecified), the Potency was active: 12.6 µM.
For Cc1cc(NC(=O)c2oc3ccccc3c2C)ccc1-n1cnnn1, the Potency was inconclusive [inhibitor, single point].
For COC(=O)/C=C/c1oc2ccccc2c1C, the Potency was “inactive”.
With COc1ccc(-n2cnc3c(sc4nc(N5CCOCC5)c5c(c43)CCCC5)c2=O)cc1 the Potency was inconclusive [inhibitor, partial curve].
With Clc1ccc(-n2nnnc2CN2CCCCC2)cc1Cl the Potency was inconclusive [inhibitor, single point].
In the case of O=C(CSc1nnc(-c2ccc(O)cc2)n1Cc1ccco1)c1cccs1, the Potency is reported as active: 14.1 µM.
For CN(C(=O)CSc1nncc2ccccc12)C1CCCCC1, the Potency was inconclusive [inhibitor, partial curve].
In the case of CNC(=O)[C@@H](Cc1ccccc1)N(C)C(=O)[C@@H](Cc1ccc2ccccc2c1)N(C)C(=O)/C=C/CC(C)(C)N, the Potency is reported as “inactive”.
COc1cc(C2NC(=O)NC(O)(C(F)(F)F)C2C(=O)c2cccs2)ccc1O (stereo unspecified) was tested, and the Potency was active: 22.4 µM.
With CC(C)OC(=O)c1nnn(-c2nonc2N)c1CSc1ccccn1 the Potency was active: 2.24 µM.
For CCCc1nc2ccccc2c(=O)n1/N=C/c1ccc(O)cc1O, the Potency was inconclusive [inhibitor, single point].
In the case of COC(=O)c1sc(S(=O)(=O)N2CCC(C(=O)O)CC2)c(C(=O)OC)c1C, the Potency is reported as inconclusive [inhibitor, single point].
For Cc1ccc2nc(-c3ccc(NC(=O)COC(=O)c4ccco4)cc3)sc2c1, the Potency was inconclusive [inhibitor, partial curve].
Cc1cccc(N2CCN(C(=O)Cn3ccc4ccccc4c3=O)CC2)c1C was tested, and the Potency was inconclusive [inhibitor, single point].
With O=C(/C=C/c1ccccc1)C1=C(O)C(=O)N(CCO)C1c1ccc2c(c1)OCO2 (stereo unspecified) the Potency was inconclusive [inhibitor, single point].
In the case of CCOC(=O)N1CCN(C(=O)CSc2ccccc2)CC1, the Potency is reported as inconclusive [inhibitor, single point].
